According to the supplement of paper PMC3334620:
Over roughly 33,000 sequences, “E-score (-0.5 to 0.5)” has its median near -0.041; the highest 2% begin near 0.37. This is one part of the list.

Biological target: T1, Ecm22 (UniProt Q05958)
T1 sequence: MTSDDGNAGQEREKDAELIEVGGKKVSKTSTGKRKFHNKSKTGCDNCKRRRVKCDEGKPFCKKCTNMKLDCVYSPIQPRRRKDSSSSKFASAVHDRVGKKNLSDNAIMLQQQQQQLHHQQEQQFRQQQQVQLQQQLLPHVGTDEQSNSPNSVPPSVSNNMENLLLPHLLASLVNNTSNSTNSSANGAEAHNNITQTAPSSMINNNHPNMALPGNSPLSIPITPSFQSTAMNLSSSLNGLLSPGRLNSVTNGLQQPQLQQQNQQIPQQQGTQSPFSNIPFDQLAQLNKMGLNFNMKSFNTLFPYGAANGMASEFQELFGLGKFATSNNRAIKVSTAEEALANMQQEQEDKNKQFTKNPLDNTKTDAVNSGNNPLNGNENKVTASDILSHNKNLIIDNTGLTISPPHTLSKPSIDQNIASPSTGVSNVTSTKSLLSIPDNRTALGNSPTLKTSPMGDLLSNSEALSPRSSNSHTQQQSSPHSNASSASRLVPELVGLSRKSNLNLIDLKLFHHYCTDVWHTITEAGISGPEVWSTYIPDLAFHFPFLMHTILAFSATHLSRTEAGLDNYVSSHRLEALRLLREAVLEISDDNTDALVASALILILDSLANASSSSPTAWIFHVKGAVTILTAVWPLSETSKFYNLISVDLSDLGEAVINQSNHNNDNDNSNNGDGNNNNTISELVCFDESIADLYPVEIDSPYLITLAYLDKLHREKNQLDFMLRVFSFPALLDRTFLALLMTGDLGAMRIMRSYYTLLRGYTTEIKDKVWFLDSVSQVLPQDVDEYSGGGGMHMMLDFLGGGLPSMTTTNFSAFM
Test: PBM E-score (8-mer binding enrichment) (E-score (-0.5 to 0.5)); higher = stronger / more preferred TF binding; most listed sequences are background and not binding sites
Settings: protein concentration: 200 nM; construct: GST-full length
Protocol: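 Universal 'all 10-mer' protein binding microarrays (Agilent AMADID 015681) probed with GST-tagged S. cerevisiae TFs (full-length or DBD) made by in vitro transcription/translation (PURExpress), about 100-200 nM. Bound TF was detected with fluorescent anti-GST. Each ungapped 8-mer (which stands for itself and its reverse complement) is scored by the PBM enrichment score (E-score), a modified Wilcoxon-Mann-Whitney statistic from -0.5 to +0.5, computed with the Universal PBM Analysis Suite. Scale: above 0.35 generally sequence-specific binding.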

First: AATGCGTC
Second: CGGCTACC
The “PBM E-score” value of the first is lower: -0.144 for the first, -0.0704 for the second.

Going from AGAGCCTC to CTGGCTCC, the “PBM E-score” value falls from -0.119 to -0.202.

Going from CAGAGATA to GTTCCTTA, the “PBM E-score” value rises from -0.0689 to 0.21.

Going from ACGGGAAG to CAGAGTAA, the “PBM E-score” value falls from 0.105 to -0.263.

First: GAGGGGTA
Second: GCTCATGA
The “PBM E-score” value of the first is higher: 0.059 for the first, 0.0254 for the second.

Going from AGAGCGAA to CATTAGAC, the “PBM E-score” value falls from 0.196 to -0.354.

Compared with GGGTTTAC, TATAAATA is higher in “PBM E-score” value: 0.0709 for the first, 0.236 for the second.

First: ATACCTAA
Second: ATACGCCG
The “PBM E-score” value of the first is lower: 0.00421 for the first, 0.277 for the second.

Going from AGCGAGTA to ACTGGCAC, the “PBM E-score” value falls from 0.363 to -0.25.

First: GATCTCAA
Second: CTGAGACC
The “PBM E-score” value of the first is higher: -0.0686 for the first, -0.314 for the second.

Going from GGATGGCC to AGTGCCAA, the “PBM E-score” value rises from -0.271 to -0.0554.

First: AAACTAGC
Second: GGATAAAC
The “PBM E-score” value of the first is lower: -0.139 for the first, 0.182 for the second.

Compared with AAAGCACA, AACCTGCA is higher in “PBM E-score” value: -0.0632 for the first, 0.0107 for the second.

Compared with AATACATA, AACGGGCG is higher in “PBM E-score” value: -0.00765 for the first, 0.225 for the second.

Compared with GGTTACAA, AAGAAATC is lower in “PBM E-score” value: 0.121 for the first, 0.0462 for the second.

Going from CCCCGTGA to CGCAGGTC, the “PBM E-score” value rises from -0.237 to -0.0744.

Going from GAGAATAA to AATATCTC, the “PBM E-score” value rises from -0.0195 to 0.156.

Going from ATATTGCG to GTCCTCGA, the “PBM E-score” value falls from 0.117 to -0.0879.

First: ACAGAGCA
Second: ACTCATTA
The “PBM E-score” value of the first is higher: -0.00761 for the first, -0.0087 for the second.

First: AGCAACAA
Second: ACGGTGAT
The “PBM E-score” value of the first is lower: -0.0318 for the first, 0.107 for the second.

Going from CAACGCGC to CGCCTCAG, the “PBM E-score” value falls from 0.102 to -0.265.

Going from ATTTGATC to AATACCCC, the “PBM E-score” value falls from 0.0593 to -0.188.

Going from CCTATCTA to ATGGAATA, the “PBM E-score” value rises from -0.206 to -0.0571.

Going from AAAACCAG to CCTAGAAC, the “PBM E-score” value rises from -0.047 to -0.00215.

Compared with TAATCCCA, ATCCGTCG is higher in “PBM E-score” value: -0.221 for the first, 0.252 for the second.

First: GATTGGAC
Second: GAACTGAC
The “PBM E-score” value of the first is lower: -0.246 for the first, 0.00371 for the second.

Compared with CTGGTCTC, GCAACCAC is higher in “PBM E-score” value: -0.162 for the first, -0.146 for the second.

First: ACGTTGCC
Second: ACCCATTG
The “PBM E-score” value of the first is lower: -0.0326 for the first, -0.0186 for the second.

Compared with ACAACGCA, CCACTAAA is lower in “PBM E-score” value: 0.0788 for the first, -0.0082 for the second.

Going from AGTTGGAG to ACGGCCTG, the “PBM E-score” value rises from -0.127 to 0.0823.

First: GGAACGCC
Second: CCACCTGA
The “PBM E-score” value of the first is higher: 0.051 for the first, -0.178 for the second.

Compared with AAAATCAA, AACACCGC is higher in “PBM E-score” value: -0.131 for the first, -0.0635 for the second.

Going from TGTCTTAA to ATCACTAC, the “PBM E-score” value falls from -0.176 to -0.199.

Compared with AGTTCGGA, ATTTGCAA is higher in “PBM E-score” value: -0.0218 for the first, -0.0045 for the second.

First: CAGGCGGA
Second: GTCACTCA
The “PBM E-score” value of the first is higher: -0.0338 for the first, -0.0675 for the second.

First: TAAAGAGA
Second: GCAATCTA
The “PBM E-score” value of the first is lower: -0.207 for the first, -0.0926 for the second.

First: ACTGCGTG
Second: GCAGCTCA
The “PBM E-score” value of the first is higher: -0.033 for the first, -0.199 for the second.

Going from TGATAACA to CAGCGATC, the “PBM E-score” value rises from 0.021 to 0.162.

Compared with AGGTCGCA, GTTTCAAA is lower in “PBM E-score” value: 0.188 for the first, 0.0508 for the second.

First: AGGAGGGA
Second: GACACCAC
The “PBM E-score” value of the first is higher: -0.171 for the first, -0.176 for the second.

Going from AGATAAAT to CGTAGTGA, the “PBM E-score” value falls from -0.035 to -0.0367.

First: ACGGCAGC
Second: AATGTAGC
The “PBM E-score” value of the first is higher: 0.0307 for the first, -0.0437 for the second.

First: ACATACTC
Second: CACGCACG
The “PBM E-score” value of the first is higher: 0.0477 for the first, -0.213 for the second.
